The whole screen tested about 48,000 compounds, of which about 550 (1.1%) were called active. About 4% were inconclusive and are not listed. Cut-off read from the data, not from the text of the source: active = potency below about 15 µM; inconclusive = mostly about 16 µM to 33 µM; inactive = weaker than that. The list shows a part of the results.

Here are results for 91 compounds from PubChem BioAssay AID360 (National Center for Advancing Translational Sciences (NCATS), 2006).
Potency is the fitted concentration of half-maximal effect.

Chain of UniProt P04062 (P04062 whole entry, looked up): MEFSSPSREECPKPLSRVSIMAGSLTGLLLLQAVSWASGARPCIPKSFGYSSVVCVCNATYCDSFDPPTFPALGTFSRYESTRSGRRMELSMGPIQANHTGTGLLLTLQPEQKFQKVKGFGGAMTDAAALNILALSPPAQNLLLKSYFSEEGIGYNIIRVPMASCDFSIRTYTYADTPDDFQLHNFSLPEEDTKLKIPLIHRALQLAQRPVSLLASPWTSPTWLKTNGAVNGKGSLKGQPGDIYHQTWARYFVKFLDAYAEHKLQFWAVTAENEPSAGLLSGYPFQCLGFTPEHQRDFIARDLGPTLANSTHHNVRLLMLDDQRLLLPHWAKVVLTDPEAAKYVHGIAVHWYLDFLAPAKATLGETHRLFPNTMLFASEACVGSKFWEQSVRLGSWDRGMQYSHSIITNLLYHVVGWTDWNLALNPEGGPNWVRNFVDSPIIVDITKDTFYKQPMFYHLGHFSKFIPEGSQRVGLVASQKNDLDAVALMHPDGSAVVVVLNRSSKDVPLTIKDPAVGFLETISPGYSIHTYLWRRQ

In the assay the target is Lysosomal acid glucosylceramidase (Homo sapiens) (UniProt P04062). The assay is described as follows: Glucocerebrosidase.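 Note: the screen sought inhibitors.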 The note with it: purified enzyme, resorufin glucoside fluorescence (screen aimed at inhibitors), 20 min. In a few lines:
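Compounds titrated against 0.2 nM normal enzyme, 30 uM resorufin beta-D-glucopyranoside substrate, citrate/phosphate buffer with taurocholate and tween-20, pH 5.9. Reaction ran 20 min at room temperature; fluorescence (Ex 548/Em 600) gave AC50.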
With `O=c1oc2ccccc2c(O)c1/C=N/c1ccccn1`, the Potency is inactive: > 76.9 µM.

Regarding `Fc1ccc2nc3n(c2c1F)CCCCCC3`, the Potency is inactive: > 76.9 µM.

For the compound `O=C(Nc1nc(-c2ccccc2)cs1)C1CCCO1` (stereo unspecified), the Potency is inactive: > 76.9 µM.

Consider `CC(C)N(C(=O)NC(=O)NCC1CCCO1)S(C)(=O)=O` (stereo unspecified), for which the Potency was inactive: > 76.9 µM.

Consider `CN(C)S(=O)(=O)Nc1ccc(Br)cc1F`, for which the Potency was inactive: > 76.9 µM.

`CCCn1c(NCc2ccco2)nc2ccccc21`: the Potency is inactive: > 76.9 µM.

On to `CC1(C)CC(=O)C2=C(C1)OC(=O)C2(NC(=O)c1cccs1)C(F)(F)F` (stereo unspecified), for which the Potency was inactive: > 76.9 µM.

Turning to `CCCCCn1c(=NC(C)=O)c(C#N)cc2c(=O)n3ccccc3nc21`, the Potency was inactive: > 76.9 µM.

With `O=S(=O)(c1ccccc1)c1nc(-c2ccco2)oc1N1CCCCCC1`, the Potency was inactive: > 76.9 µM.

`COc1cccc(NC(=O)c2ccccc2SC)c1`: the Potency is inactive: > 76.9 µM.

As for `COc1cccc(C(=O)N(Cc2ccco2)Cc2cc3cccc(C)c3[nH]c2=O)c1`, the Potency was inactive: > 76.9 µM.

Consider `CCCCc1ccc(C(=O)NC(C(=O)O)C(C)C)cc1` (stereo unspecified), for which the Potency was inactive: > 76.9 µM.

In the case of `CCOC(=O)c1sc(N)c(C#N)c1COC(=O)CNC(=O)c1ccccc1`, the Potency is inactive: > 76.9 µM.

Turning to `COC(=O)CSc1nnc(-c2ccco2)o1`, the Potency was inactive: > 76.9 µM.

As to `CC(=O)N(Cc1cc2cc(C)c(C)cc2n2nnnc12)CC1COCCO1` (stereo unspecified), the Potency was inactive: > 76.9 µM.

As for `CCCCCOC(=O)c1cc(=O)[nH]c2ccccc12`, the Potency was inactive: > 76.9 µM.

As to `CC(=O)COc1ccc2c3c(c(=O)oc2c1)CCCC3`, the Potency is inactive: > 76.9 µM.

For `Cc1ccc(CCNC(=O)C2CCC(=O)N2C2CCCC2)cc1` (stereo unspecified), the Potency is inactive: > 76.9 µM.

As for `COc1cccc(CNC(=O)C2CCCN(S(C)(=O)=O)C2)c1` (stereo unspecified), the Potency is inactive: > 76.9 µM.

As to `COc1cc(OC)cc(-c2nc3nc(C)c(CCC(=O)O)c(C)n3n2)c1`, the Potency is inactive: > 76.9 µM.

With `O=C(NCc1cccs1)C1CCC(CNS(=O)(=O)c2ccc(Br)s2)CC1` (stereo unspecified), the Potency was inactive: > 76.9 µM.

As for `CC(=O)C1=C(Nc2ccc(C)cc2)CC(C)(O)C(C(C)=O)C1c1ccco1` (stereo unspecified), the Potency was inactive: > 76.9 µM.

`COCCn1c(C)cc(C(=O)COC(=O)c2cc3c(s2)CCC3)c1C`: the Potency is inactive: > 76.9 µM.

As to `N#CCSc1nnc(CNc2cccc(Cl)c2)o1`, the Potency was inactive: > 76.9 µM.

Consider `COc1cc(C(=O)NCCc2ccc3c(c2)OCCO3)ccc1OCC(=O)N1CCOCC1`, for which the Potency was inactive: > 76.9 µM.

For the compound `COc1ccc(CN(Cc2cc3ccc(C)cc3[nH]c2=O)Cc2nnnn2C2CCCC2)cc1`, the Potency is inactive: > 76.9 µM.

Consider `Cc1cc(C)c2[nH]c(=O)c(C(c3nnnn3Cc3ccc4c(c3)OCO4)N3CCCCC3)cc2c1` (stereo unspecified), for which the Potency is inactive: > 76.9 µM.

Turning to `CCOc1ccccc1C1C2C(=O)N(c3ccccc3)C(=O)C2ON1c1ccccc1` (stereo unspecified), the Potency is inactive: > 76.9 µM.

With `COC(=O)c1ccccc1NC(=O)N1CCCC1`, the Potency is inactive: > 76.9 µM.

With `CCOC(=O)C1CCCN(CC(O)COc2ccc(OC)cc2C(C)(C)C)C1` (stereo unspecified), the Potency is inactive: > 76.9 µM.

As to `CCC(C)(C)n1nnnc1C(c1ccc2ncccc2c1)N1CCN(Cc2ccc3c(c2)OCO3)CC1` (stereo unspecified), the Potency was inactive: > 76.9 µM.

Take `COc1ccc2c(c1)CCc1c(C(=O)N3CCCc4ccccc43)noc1-2`: the Potency was inactive: > 76.9 µM.

With `COCCNC(=O)CCn1c(=O)oc2ccccc21`, the Potency was inactive: > 76.9 µM.

For `CCN(CC)C(=O)CSc1ncnc2c1cnn2Cc1ccccc1`, the Potency is inactive: > 76.9 µM.

Turning to `O=C(CN1CCN(Cc2ccccc2)CC1)NC(=O)NC1CCCCC1`, the Potency is inactive: > 76.9 µM.

Take `CC(C)(CO)NS(=O)(=O)c1ccc2c(c1)oc(=O)c1cc(S(=O)(=O)NC(C)(C)CO)ccc12`: the Potency result was “inactive”.

With `CCOC(=O)C1CCN(c2nc(C)nc3c2oc2ccccc23)CC1`, the Potency is inactive: > 76.9 µM.

`O=C(Nc1cc(C(F)(F)F)ccc1Cl)C1CCN(c2nnc(-n3cccc3)s2)CC1`: the Potency was inactive: > 76.9 µM.

In the case of `COc1ccc(NC(=O)c2cc3cc(OC)ccc3oc2=N)cc1`, the Potency was inactive: > 76.9 µM.

`CCOC(=O)N1CCC(Nc2c(NCCCOC)c(=O)c2=O)CC1`: the Potency was inactive: > 76.9 µM.

`O=C(O)CCCC(=O)Nc1ccc(C(=O)NCc2cccnc2)cc1`: the Potency is inactive: > 76.9 µM.

As to `COc1ccc(-n2nc3cc(C)c(NC(=O)c4cccnc4)cc3n2)cc1`, the Potency was inactive: > 76.9 µM.

With `O=C(c1cc2c(s1)CCCC2)n1cccn1`, the Potency was inactive: > 76.9 µM.

In the case of `Cn1c(=O)c2c(ncn2CC(=O)N2CCN(c3cccc(Cl)c3)CC2)n(C)c1=O`, the Potency is inactive: > 76.9 µM.

Regarding `Cc1ccc(S(=O)(=O)NC2(C(F)(F)F)NC(=O)N(C)C2=O)cc1` (stereo unspecified), the Potency is inactive: > 76.9 µM.

With `Cc1ccc(S(=O)(=O)N2CCN(C(=O)CN3CCc4ccccc4C3)CC2)cc1`, the Potency is inactive: > 76.9 µM.

As for `C/C(CC1(O)C(=O)N(C)c2ccccc21)=N\O` (stereo unspecified), the Potency was inactive: > 76.9 µM.

Take `O=C(Nc1nnc(C2CCCC2)s1)C1CCN(S(=O)(=O)c2ccc(Cl)cc2)CC1`: the Potency is inactive: > 76.9 µM.

For the compound `O=C(NC1CCCC1)C1CCCN1C(=O)Nc1ccc(Cl)cc1` (stereo unspecified), the Potency was inactive: > 76.9 µM.

Turning to `O=C1c2cccnc2-c2ncccc21`, the Potency is inactive: > 76.9 µM.

`O=S(=O)(c1cccc(-c2nnc(SCc3nc4ccccc4s3)o2)c1)N1CCOCC1`: the Potency was inactive: > 76.9 µM.

On to `Cc1cccc(-n2c(SCc3cc(=O)n4ccsc4n3)nc3ccccc32)c1`, for which the Potency is inactive: > 76.9 µM.

Regarding `CCCCOc1ccc(N2C(=O)CC(N(O)c3ccccc3)C2=O)cc1` (stereo unspecified), the Potency is inactive: > 76.9 µM.

With `COC(=O)c1ccc(Cn2nnc3ccccc3c2=O)o1`, the Potency is inactive: > 76.9 µM.

For `Cc1cc(C)cc(OCC(=O)NC2=NCCS2)c1`, the Potency is inactive: > 76.9 µM.

In the case of `N#CNC1=NCN(CCc2ccccc2)CN1`, the Potency was inactive: > 76.9 µM.

On to `O=C1NC(=O)C(CC(=O)N(Cc2ccco2)C2(C(=O)NC3CCCC3)CCCCC2)N1` (stereo unspecified), for which the Potency is inactive: > 76.9 µM.

On to `CCCCC(=O)N(CCOC)c1nnc(-c2ccc(OC)cc2)s1`, for which the Potency is inactive: > 76.9 µM.

`CC(=O)c1cccc(S(=O)(=O)N(CCCO)Cc2cc3ccc(C)cc3[nH]c2=O)c1`: the Potency was inactive: > 76.9 µM.

Turning to `CCCC(CCC(=O)OC)(C(=O)OCC)c1csc(N)n1` (stereo unspecified), the Potency was inactive: > 76.9 µM.

For the compound `CC(=O)Nc1ccc(S(=O)(=O)N2CCCN(S(=O)(=O)c3ccc(C)cc3)CC2)cc1`, the Potency was inactive: > 76.9 µM.

In the case of `O=C(O)CC1NC(=O)N(c2ccccc2)C1=O` (stereo unspecified), the Potency is inactive: > 76.9 µM.

As to `Cc1ccc(CNc2ccc3c(c2)OCO3)c(C)c1`, the Potency is inactive: > 76.9 µM.

As to `COc1ccc(NC(=O)CSc2nc(C)cc(C(F)(F)F)n2)cc1`, the Potency was inactive: > 76.9 µM.

On to `COc1ccc(CCN(Cc2nc3ccccc3c(=O)[nH]2)C(=O)c2ccco2)cc1`, for which the Potency is inactive: > 76.9 µM.

Turning to `CCOC(=O)c1cnc(-n2nc(C)cc2C)nc1NCc1ccc2c(c1)OCO2`, the Potency is inactive: > 76.9 µM.

Regarding `CCCCCn1c(CN2CCN(c3cccc(Cl)c3)CC2)nc2c1c(=O)n(C)c(=O)n2C`, the Potency was inactive: > 76.9 µM.

`CCOC(=O)Cc1c(C)c2c(O)cc(O)cc2oc1=O`: the Potency was inactive: > 76.9 µM.

On to `CC(C)NS(=O)(=O)c1cc(C(=O)O)ccc1Cl`, for which the Potency is inactive: > 76.9 µM.

Take `O=C(Cn1[nH]c(=O)c2ccccc2c1=O)Nc1cccc(-c2nnc3n2CCCCC3)c1`: the Potency was inactive: > 76.9 µM.

Consider `O=C(c1cnn2c(C(F)F)cc(-c3ccccc3)nc12)N1CCSCC1`, for which the Potency is inactive: > 76.9 µM.

As for `CCOc1cc2[nH]c(=S)n(CCOC)c(=O)c2cc1OCC`, the Potency is inactive: > 76.9 µM.

Take `O=C(Nc1ccc(N2CCN(C(=O)c3ccco3)CC2)c(Cl)c1)c1cccs1`: the Potency result was “inactive”.

Regarding `CCCc1cc(=O)n2[nH]c(NCc3ccc(Cl)cc3Cl)nc2n1`, the Potency is inactive: > 76.9 µM.

Regarding `CCN1CCN(S(=O)(=O)c2ccc(S(=O)(=O)N(CC)Cc3ccccc3)cc2)CC1`, the Potency result was “inactive”.

As to `CCn1c(C)c(C(C)=O)c(N2CCN(c3ccccn3)CC2)nc1=S`, the Potency is inactive: > 76.9 µM.

Take `O=C(NC1CCCCCC1)c1cc(S(=O)(=O)N2CCC3(CC2)OCCO3)ccc1F`: the Potency is inactive: > 76.9 µM.

As to `O=C(OCc1ccc2c(c1)OCO2)c1ccc(S(=O)(=O)N2CCCC2)cc1`, the Potency was inactive: > 76.9 µM.

In the case of `Cc1nc(CC(=O)N2CCN(S(=O)(=O)c3ccccc3C#N)CC2)cs1`, the Potency is inactive: > 76.9 µM.

For the compound `OC(CN1CCN(c2cccc(C(F)(F)F)c2)CC1)c1c[nH]c2ccccc12` (stereo unspecified), the Potency was inactive: > 76.9 µM.

On to `CCOCc1nnc(NC(=O)c2cccs2)s1`, for which the Potency entry is “inactive”.

As for `O=C(c1ccc(-c2ccccc2)cc1)N1CCN(c2ncccn2)CC1`, the Potency was inactive: > 76.9 µM.

For the compound `CCOC(=O)C1CCN(CC(=O)Nc2c(C(=O)OC)[nH]c3ccc(Cl)cc23)CC1`, the Potency was inactive: > 76.9 µM.

Consider `COc1ccccc1NC(=O)N1CCn2c(nc3ccccc32)C1`, for which the Potency was inactive: > 76.9 µM.

In the case of `CCC(=O)Nc1nc2ccccc2n1CCN(CC)CC`, the Potency is inactive: > 76.9 µM.

Take `Fc1ccc(C2CC(c3ccc(F)cc3)n3ncnc3N2)cc1` (stereo unspecified): the Potency was inactive: > 76.9 µM.

Turning to `Cc1cc(=O)n2[nH]c(-c3ccccc3Cl)cc2n1`, the Potency is inactive: > 76.9 µM.

`CCOC(=O)Nc1ccc2c(c1)N(C(=O)CCN1CCOCC1)c1ccccc1S2=O` (stereo unspecified): the Potency is inactive: > 76.9 µM.

Consider `Cc1ccc2nc3c(cc2c1)CN(Cc1ccco1)C(=NCC1CCCO1)S3` (stereo unspecified), for which the Potency is inactive: > 76.9 µM.

On to `CCc1ccc(S(=O)(=O)NCCc2cn3ccccc3n2)s1`, for which the Potency is inactive: > 76.9 µM.

For `COC(=O)CSc1nnc(-c2ccoc2C)n1-c1ccc(C)cc1`, the Potency is inactive: > 76.9 µM.
